# From PMC12040169 (PLOS Biology, 2025)
# The list shows a part of the results.
# System: T1, C. trachomatis L2/434/Bu expressing GFP (CTL2-GFP)
# T1 construct: L2/434/Bu GFP intracellular growth in HeLa cells
# Parameters: species or system HeLa; C. trachomatis total inclusion area by high-content imaging, normalised to DMSO
# Details: total inclusion area; 28.5 h, 10 µM; inhibitor
# How it was run: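 High-content images of fixed, Hoechst-stained infected cultures supply inclusion area and count (growth) plus nuclei number (viability), complementing bulk GFP/resorufin fluorescence. MIC determination is unchanged from the primary assay.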
row,Compound,% of control remaining
1,Cc1cccc(-c2csc3c(=O)[nH]c(N4CCC(C(=O)NCCN5CCOCC5)CC4)nc23)c1 [CBK215640],117.942
2,Cc1cccc2c1[nH]c1nc(N/N=C\c3ccc(-c4cccc([N+](=O)[O-])c4)o3)nnc12 [CBK262373],104.931
3,C[C@H]1CN(C(=O)c2cc(C3CC3)no2)[C@@H](C)CN1Cc1ccco1 [CBK281736],104.735
4,CN1CCN(CCC(=O)N/N=C/c2cccc(Br)c2)CC1 [CBK261496],106.394
5,CCOC(=O)c1sc(Nc2nc(C)cc(OC)n2)nc1C [CBK264822],77.7242
6,Cc1csc2c(C3CCN(C(=O)c4cccnc4)CC3)nc(C)n12 [CBK285242],78.7064
7,CC(c1cccs1)N(C)C(=O)NC1CCCc2c1cnn2CCO (stereo not shown) [CBK306289],24.574
8,Cc1cc(C)c(C)c(OCCCNC(=O)Cc2c(C)noc2C)c1 [CBK281506],117.893
9,COc1cc(CN2CCN(C3CCCCC3)CC2)cc(OC)c1OC [CBK263407],110.072
10,CCOC(=O)c1ccc(NC(=O)C(C)Oc2ccccc2C)cc1 (stereo not shown) [CBK268660],119.681
11,O=C(CSc1ccccc1)NCc1ccncc1 [CBK058023],65.7484
12,CC1CCC(C(N)=O)CN1C(=O)c1cncc(Br)c1 (stereo not shown) [CBK305773],39.3309
13,CCOC(=O)c1cnn(C2CCCN(c3ccc(C#N)nc3)C2)c1 (stereo not shown) [CBK306458],67.3498
14,COC(=O)C1CC(O)CC1C(=O)N1CCCC1 (stereo not shown) [CBK011029],108.834
15,O=C(O)CCc1nc2ccccc2s1 [CBK264071],103.168
16,Cc1nnc(NS(=O)(=O)c2ccc(Br)cc2)s1 [CBK068266],85.366
17,CN(C)CCN1CCN(c2nc(-c3occc3C=O)cnc2N)CC1 [CBK063917],78.4541
18,O=C(/C=C/c1cccc([N+](=O)[O-])c1)Nc1ccc(O)cc1C(=O)O [CBK263615],111.333
19,Cc1ncccc1COC(=O)N1c2ccc(F)cc2CCC1C (stereo not shown) [CBK200139],111.052
20,COc1nccnc1-c1ccccc1Cl [CBK107000],101.91
21,C=CCNC(=O)c1ccccc1NC(=O)Cc1ccc(Cl)cc1 [CBK270086],68.5349

row,Compound,% of control remaining
1,CCC(C)[C@H](NC(=O)N1CCN(C(=O)c2cc3ccccc3[nH]2)CC1)C(=O)O (stereo partly shown) [CBK286725],102.009
2,COc1ccc(-c2nccnc2N2CCN(C)CC2)cc1 [CBK038012],75.1398
3,CC1=C(CCN2CCCC(CO)C2)C(C)(C)CCC1 (stereo not shown) [CBK020827],49.0836
4,Cc1cccc(-c2noc([C@@H]3Cc4[nH]cnc4CN3C(=O)CC(C)(C)CC(=O)O)n2)c1 [CBK288961],99.5972
5,FC(F)(F)c1ccnc(Sc2nccs2)n1 [CBK093771],91.8556
6,CC(C)Nc1cncc(Sc2ccccc2O)n1 [CBK091438],81.2123
7,COc1ccc(CCNS(=O)(=O)N(C)C)cc1 [CBK264348],125.815
8,COc1cc(S(=O)(=O)NCc2ccncc2)c(C)cc1C [CBK269988],62.6285
9,CCOC(=O)C1(C2CCCCC2)CCN(C(=O)c2cscn2)CC1 [CBK137101],86.3278
10,Cc1cc(C)c2c(N)c(C(=O)C(C)(C)C)sc2n1 [CBK115341],89.8402
11,O=C(O)c1cccc2c1C(=O)N(Cc1cccnc1)C2 [CBK291193],111.743
12,O=C(O)CNS(=O)(=O)c1cccc2cccnc12 [CBK034462],106.599
13,COc1cc(C(=O)N2CCC3(CC2)CC(=O)c2cc(C)ccc2O3)cc(OC)c1C [CBK167805],40.9128
14,CCCn1c(SCC(=O)c2ccc(CCNC(C)=O)cc2)n[nH]c1=O [CBK296965],90.8853
15,COc1ccc(-c2cnc(NCC3CC3)c(C(=O)NCc3ccccc3SC)c2)cc1 [CBK076437],73.017
16,Cc1cc(C)nc(N2CCC(CC(=O)NC(C)CCN3CCCCCC3)CC2)n1 (stereo not shown) [CBK285993],130.884
17,OCCN(Cc1ccncc1)CC1(c2ccc(Cl)cc2)CC1 [CBK282782],59.1188
18,COc1ccc(CCNc2nc3c(c(=O)n(C)c(=O)n3C)n2Cc2ccccc2Br)cc1OC [CBK267495],88.1474
19,CCCCC(O)C[N+]1(C)CCC(c2ccccc2)CC1 (stereo not shown) [CBK006696I],40.5795
20,O=C(NC1CCN(CC2(c3ccccc3)CC2)CC1)C1CCOCC1 [CBK285352],85.5759
21,COc1ccc([C@@]23CCC(NC(=O)Nc4ccc5c(c4)Cc4ccccc4-5)C[C@@H]2N(C)CC3)cc1OC (stereo partly shown) [CBK047550T],42.9103

row,Compound,% of control remaining
1,CN(C)CC(C)(C)CNC(=O)c1cc(C(=O)c2ccc(Cl)cc2Cl)c[nH]1 [CBK107416],87.0491
2,COc1ccc(C)cc1S(=O)(=O)N1CCc2c(CN3CCOCC3)cccc21 [CBK113630T],100.93
3,CC(C)(C)C(=O)CSc1nnc(Cn2cnc(Cl)c2Cl)o1 [CBK011055],90.8001
4,O=C(c1cccnc1NCc1ccc2c(c1)OCO2)N1CCNCC1 [CBK156112T],97.9993
5,Cc1cccc(-c2cc(C(=O)Nc3sc4c(c3C#N)CCCCCC4)c3ccccc3n2)c1 [CBK262632],95.67
6,N#Cc1ccc(-n2ncc(-c3cccc(C(F)(F)F)c3)n2)cc1 [CBK112675],55.4095
7,O=C(CCSc1nc(-c2ccco2)cc(C(F)(F)F)n1)Nc1ccc2c(c1)OCO2 [CBK267627],94.9846
8,Cc1ccc(-c2nc3ncccc3o2)cc1NC(=O)c1cccnc1 [CBK268774],131.55
9,O=C(Cn1c(-c2cccs2)cc2cccnc21)N1CCCCC1 [CBK282619],95.2132
10,Cc1cccc(CC(=O)N2CCC(c3ncc(C(=O)Nc4ccc(F)cc4)c(C)n3)CC2)c1 [CBK285885],96.9382
11,CC(=O)Nc1ccc(C(=O)N(Cc2ccccn2)CC2CCCO2)cn1 (stereo not shown) [CBK306784],61.4147
12,Cn1ccc(C(=O)N2CCC[C@H](C(=O)c3ccc(F)cc3)C2)n1 [CBK284333],85.6816
13,O=C1CN(C(=O)Nc2ccc3c(c2)OCCO3)CCN1 [CBK155860],80.6551
14,Cn1ccnc1CNc1nc(C(C)(C)C)nc2c1cnn2C [CBK306894],59.488
15,Nc1ccc(C(=O)Nc2ccc(Nc3cc(-c4cccnc4)ncn3)cc2)cc1 [CBK037823],100.466
16,N#Cc1cc2c([nH]c1=S)CCN(Cc1ccccc1)C2 [CBK288378],108.057
17,CN(C)CCn1c2c(c3ccccc31)CCCn1nnnc1-2 [CBK267713C],95.7049
18,CC(C)(CO)CNc1cncc(-c2cc3ccccc3o2)n1 [CBK066029],92.5009
19,Cc1csc(-c2ccc(C(=O)N(C)CCN(C)C)c(NCC3CC3)n2)c1 [CBK106279],84.745
20,CCN1CCN(c2ccc3nnc(C(C)C)n3n2)CC1 [CBK287974],100.631
21,Cc1cnc2c(C(=O)N3CCCC3c3ccccn3)cnn2c1 (stereo not shown) [CBK304612],12.7598

row,Compound,% of control remaining
1,COc1cc(C)nc(NC(=O)Nc2cccc(Cl)c2)n1 [CBK269828],98.0847
2,CN(C)CCCN[C@H]1CC[C@@H](c2ccccc2)CC1 [CBK016465],113.461
3,CCOC(=O)C1(C2CCCCC2)CCN(C(=O)CCC(=O)O)CC1 [CBK136939],89.9556
4,Cc1ccc(C)c(NC(CC(=O)c2ccccc2)C(=O)O)c1 (stereo not shown) [CBK265485],104.871
5,O=C(CC1Sc2ccc(Cl)cc2NC1=O)Nc1ccc([N+](=O)[O-])cc1 (stereo not shown) [CBK264860],125.907
6,CC(/C=C1\SC(=S)N(CCC(=O)Nc2ccc(O)c(C(=O)O)c2)C1=O)=C\c1ccccc1 [CBK263875],95.785
7,O=C(C1CCCC1)N1CCC(n2nc(-c3cccs3)oc2=O)CC1 [CBK282424],106.127
8,CC(=O)NCC1CC(c2ccc(C3=CCN(C(C)=O)CC3)cc2)=NO1 (stereo not shown) [CBK010245],71.7051
9,CN1C(/C=N/O)=C(O)c2ccccc2S1(=O)=O [CBK010098],65.7907
10,Oc1ccc2cc(-c3ccc(OC(F)(F)F)cc3)cnc2n1 [CBK081300],23.6281
11,CN(C)CCNC(=O)c1ccc(COc2ccc(Cl)cc2Cl)cc1 [CBK265878],67.5807
12,Cn1ncc2c(NCCN3CCOC3=O)nc(C(C)(C)C)nc21 [CBK307511],62.9969
13,O=C(O)Cc1sc(NCCN2CCOCC2)nc1-c1ccccc1 [CBK200113T],103.73
14,CCCCCC1=NN(C(=O)c2ccccc2Br)C(O)(C(F)(F)F)C1 (stereo not shown) [CBK027223],93.2813
15,CCCc1n[nH]c(=S)n1CC(=O)NCc1ccc(Oc2cc(C)ccc2C)nc1 [CBK297742],113.34
16,Cc1ccc(CN(Cc2[nH]cnc2C)C2CC(C)(C)NC(C)(C)C2)o1 [CBK283176],91.874
17,O=C(CN1CCN(CC(=O)NC2CC2)CC1)Nc1cc(Cl)ccc1Cl [CBK306091],50.5891
18,O=C(/C=C/c1cn(C2CC(O)C(CO)O2)c(=O)[nH]c1=O)NCCCCCCNC(=O)C(F)(F)F (stereo not shown) [CBK201310],98.0764
19,Cn1c(=O)c2c(nc(NCc3ccccc3)n2C)n(C)c1=O [CBK139872],71.4862
